{"source": "PubChem BioAssay AID2675", "about": "(National Center for Advancing Translational Sciences (NCATS), 2010)", "note": "Among all 280,000 compounds or so, about 100 (0.036%) were called active. Inconclusive results, whose numbers are uncertain, are shown with a selection of clear calls. Calls follow the shape of the dose curve; as a rule, active = well fitted inhibition curve with a large enough effect in the signal ratio, with a control signal flat (not every such curve was filed as active); inconclusive = small, poorly fitted or top-dose-only effect, or effect the other way, or a change in a side signal; inactive = no such curve, though single readings can be large or run the other way; the % refers to the signal ratio. Potencies of inconclusive entries are doubtful fits and often do not repeat. A note “side channel” means that the fit belongs to a control or component signal, not to the main read-out. % is scaled to controls: 0 for no effect and ±100 for the full control effect; potency is read from the fitted curve at half-maximal effect; tags tell the direction and shape of the fitted curve or compound fluorescence and quenching.", "data": [{"biological_target": "Muscleblind-like protein 1 (Homo sapiens) (UniProt Q9NR56)", "sequence (Q9NR56 whole entry, looked up)": "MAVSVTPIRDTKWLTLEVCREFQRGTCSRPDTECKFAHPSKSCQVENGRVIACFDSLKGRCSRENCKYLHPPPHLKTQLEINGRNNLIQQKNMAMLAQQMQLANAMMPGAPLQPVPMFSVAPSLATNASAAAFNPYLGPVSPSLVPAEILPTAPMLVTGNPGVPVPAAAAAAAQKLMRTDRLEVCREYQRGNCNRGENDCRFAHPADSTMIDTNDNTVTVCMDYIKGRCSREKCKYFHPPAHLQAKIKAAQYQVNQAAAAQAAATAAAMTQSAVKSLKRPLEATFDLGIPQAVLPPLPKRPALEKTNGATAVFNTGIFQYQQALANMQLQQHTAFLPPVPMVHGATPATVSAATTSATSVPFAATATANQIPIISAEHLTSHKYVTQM", "assay": "qHTS Assay for Inhibitors of MBNL1-poly(CUG) RNA binding", "conditions": "TR-FRET MBNL1-His/biotin-(CUG)12 binding, 665/545 ratio; activity change, negative = inhibition: at 57.5 µM (top of the series)", "excerpt": "NIH Chemical Genomics Center [NCGC] NIH Molecular Libraries Probe Production Centers Network [MLPCN] MLPCN Grant: R03 MH087421-01 Assay Submitter (PI): Charles Thornton NCGC Assay Overview: Expanded CTG repeats in the 3' untranslated region of the DM protein kinase (DMPK) gene causes type I myotonic dystrophy (DM1). DM1 is a multi-systemic disease with a prevalence of 1/7000. Clinical features include myotonia, progressive muscle weakness and wasting, cardiac arrhythmia, insulin resistance, hypersomnolence, cataracts, and other symptoms. The pathogenic effect of expanded CTG repeats stems from deleterious effects of the mutant transcript. CUGexp mRNA accumulates in nuclear foci and sequesters proteins of the muscleblind family, of which MBNL1 is the most common family member in skeletal muscles. The binding interaction between MBNL1 and CUGexp tracts leads to deregulation of alternative splicing and is therefore a key molecular step in the pathogenesis of DM1. To target this binding interaction, we optimized a protein-RNA binding assay in 1536-well format for identification of small molecule inhibitors of biotinylated (CUG)12 and his-tagged MBNL1 binding. Protein-RNA complex of MBNL1-His and Biotin-(CUG)12 captures the detection reagents terbium-labeled anti-His antibody and streptavidin conjugated XL665. This brings the terbium label within close proximity to XL665 to allow time-resolved fluorescence resonance energy transfer (TR-FRET). Inhibitors of MBNL1-(CUG)12 binding will disrupt TR-FRET.\nNCGC Assay Protocol Summary: This is a TR-FRET binding assay with MBNL1-His and Biotin-(CUG)12 RNA. The assay uses a ratiometric measurement. In the presence of MBNL1-(CUG)12 complex, the excitation energy is transferred to the XL665 acceptor label, causing emission at 665nm, while the 545nm donor signal […]. Data were normalized to the controls for basal activity (buffer only) and 100% activity (with MBNL1-(CUG)12). […] The final titration was 92 nM to 58 uM. (3) Add 1 ul of terbium labeled anti-His antibody (0.055 ng/ul final concentration) (4) Add 1 ul of streptavidin-XL665 (5 nM final concentration) (5) Incubate 60 min at room temperature (6) Detect the assay plate in a EnVision plate reader (PerkinElmer) with Ex=340 nm, Em1=665 nm and Em2=545 nm. Keywords: mytonic dystrophy type I, DM1, muscleblind like 1, MBNL1, CUG expansion, protein-RNA binding inhibitor, high throughput screening, MLSMR, MLSCN, NIH Roadmap, qHTS and NCGC", "values": [{"compound": "CC(=O)Nc1cccc(C(=O)/C=C/c2ccc(C)cc2)c1", "activity change, negative = inhibition": "inactive: -7.06%"}, {"compound": "CC1CCC2C(=O)N(c3ccc(NC4CCCCC4)c([N+](=O)[O-])c3)C(=O)C2C1", "note": "(stereo not given)", "Potency": "inconclusive: 14.1 µM [quencher, side channel, partial curve]"}, {"compound": "CCOC(=O)Cc1csc(NC(=O)c2ccc3ccccc3n2)n1", "Potency": "inconclusive: 28.2 µM [quencher, side channel, partial curve]"}, {"compound": "O=[N+]([O-])c1ccc(N/N=C/c2cccnc2)cc1", "Potency": "inconclusive: 12.6 µM [quencher, side channel, partial curve]"}, {"compound": "Cc1cccc(N2C(N)=C(C#N)C(C#N)(C#N)C2c2ccccc2)c1", "note": "(stereo not given)", "activity change, negative = inhibition": "inactive: -7.47%"}, {"compound": "O=C(Nc1nccs1)c1cc(-c2ccccc2)nn1-c1ccccc1", "Potency": "inconclusive: 44.7 µM [fluorescent, side channel, partial curve, poor fit]"}, {"compound": "O=C(CNC(=O)c1ccco1)OCC(=O)c1ccc([N+](=O)[O-])cc1", "Potency": "inconclusive: 10 µM [quencher, side channel, partial curve]"}, {"compound": "CNC(=O)N(O)C1N(/N=C/c2cccs2)C(=S)SC1(C)C", "note": "(stereo not given)", "Potency": "inconclusive: 39.8 µM [quencher, side channel, single point]"}, {"compound": "CCCOC(=O)NC(CC)COC(=O)Nc1cc(C)ccc1C", "note": "(stereo not given)", "activity change, negative = inhibition": "inactive: 8.11%"}, {"compound": "Cc1ncc([N+](=O)[O-])n1Cc1ccccc1", "Potency": "inconclusive: 15.8 µM [quencher, side channel, partial curve]"}, {"compound": "OC(Cc1nc2ccccc2[nH]1)c1ccccc1Cl", "note": "(stereo not given)", "activity change, negative = inhibition": "inactive: -6.51%"}, {"compound": "CC(C)OCCCN1CC(=O)N2C(c3cccc([N+](=O)[O-])c3)c3[nH]c4ccccc4c3C[C@H]2C1=O", "note": "(stereo not given in full)", "Potency": "inconclusive: 25.1 µM [quencher, side channel, single point]"}, {"compound": "c1cncc(-c2cccnc2)c1", "activity change, negative = inhibition": "inactive: 0.178%"}, {"compound": "Oc1[nH]c2ccccc2c1/C=N/c1nccs1", "Potency": "inconclusive: 15.8 µM [quencher, side channel, partial curve]"}, {"compound": "CC1(C)C(=O)OC(c2ccc([N+](=O)[O-])cc2)C(C)(C)C1=O", "note": "(stereo not given)", "Potency": "inconclusive: 14.1 µM [quencher, side channel, partial curve]"}, {"compound": "COc1ccc(NC(=O)C2=CC(c3ccc(C)cc3)=NS(=O)(=O)N2C)cc1OC", "Potency": "inconclusive: 22.4 µM [quencher, side channel, single point]"}, {"compound": "COc1cccc(C2OC(=O)c3ccccc3N2C(C)=O)c1OC(C)=O", "note": "(stereo not given)", "Potency": "inconclusive: 7.08 µM [quencher, side channel, single point]"}, {"compound": "Oc1c(N=NC(=S)Nc2ccccc2F)c2ccccc2n1Cc1cccc(Cl)c1", "activity change, negative = inhibition": "inactive: 0.857%"}, {"compound": "CCCCOC(=O)/C=C/c1ccc(OC(=O)OC)c(OC(=O)OC)c1", "Potency": "inconclusive: 39.8 µM [quencher, side channel, single point]"}, {"compound": "Cc1ccccc1C(=O)c1cccn1CC(=O)NCC(C)c1ccccc1", "note": "(stereo not given)", "Potency": "inconclusive: 39.8 µM [fluorescent, side channel, single point]"}, {"compound": "Cc1cccc(C)c1OCC(O)CN1CCN(c2ccccn2)CC1", "note": "(stereo not given)", "activity change, negative = inhibition": "inactive: -1.48%"}, {"compound": "O=C(N/C(=C\\c1ccc([N+](=O)[O-])cc1)C(=O)N1CCCCC1)c1ccc(Br)o1", "Potency": "inconclusive: 25.1 µM [quencher, side channel, partial curve, poor fit]"}, {"compound": "CN(CC(=O)Nc1sccc1C#N)C1CCCCC1", "Potency": "active: 28.2 µM"}, {"compound": "O=C(NC1CC1)C1=C[C@@H](c2csc3ccccc23)C[C@@H](OCCCCO)O1", "activity change, negative = inhibition": "inactive: -3.39%"}, {"compound": "O=C(CN1C(=O)NC2(CCCC2)C1=O)Nc1ccc(F)c([N+](=O)[O-])c1", "Potency": "inconclusive: 8.91 µM [quencher, side channel, partial curve]"}, {"compound": "CCOC(=O)N1CCN(c2c(N3CCOCC3)c(=O)c2=O)CC1", "Potency": "inconclusive: 17.8 µM [quencher, side channel, partial curve]"}, {"compound": "Cc1cc(C(=O)C(=O)N(C)C)c(C)n1-c1ccc([N+](=O)[O-])cc1", "Potency": "inconclusive: 15.8 µM [quencher, side channel, single point]"}, {"compound": "Cc1ccc(C)c(NC(=O)CS(=O)(=O)c2cccc3nsnc23)c1", "Potency": "inconclusive: 12.6 µM [quencher, side channel, partial curve]"}, {"compound": "Cc1nc2n(n1)C(O)c1cc([N+](=O)[O-])ccc1S2", "note": "(stereo not given)", "Potency": "inconclusive: 5.62 µM [quencher, side channel, partial curve]"}, {"compound": "COc1ccc(/C=C2/SC(=S)N(CCC(=O)O)C2=O)cc1", "Potency": "inconclusive: 15.8 µM [quencher, side channel, partial curve]"}, {"compound": "COc1cc(/C=C2/NC(=O)N(Cc3ccccc3F)C2=O)cc(OC)c1O", "Potency": "inconclusive: 25.1 µM [quencher, side channel, single point]"}, {"compound": "CCOc1ccc(C(=O)Nc2nnc(C3=COCCO3)o2)cc1", "activity change, negative = inhibition": "inactive: -5.7%"}, {"compound": "Cc1nn(-c2ccccc2)c(N2CCCC2)c1/C=N/Nc1ccc(S(N)(=O)=O)cc1[N+](=O)[O-]", "Potency": "inconclusive: 14.1 µM [quencher, partial curve]"}, {"compound": "CCCCOC(=O)c1ccc(NC(=S)NC(=O)c2c(Br)c(C)nn2C)cc1", "Potency": "inconclusive: 39.8 µM [fluorescent, side channel, partial curve]"}, {"compound": "COc1ccc(NC2=Nc3cccc4cccc2c34)cc1OC", "Potency": "inconclusive: 7.94 µM [quencher, side channel, partial curve]"}, {"compound": "CC(=O)N1CCN(CC(=O)Nc2cc([N+](=O)[O-])ccc2Cl)CC1", "Potency": "inconclusive: 15.8 µM [quencher, side channel, partial curve]"}, {"compound": "Cc1ccc(NC(=O)NC2CCCCC2)c(C)c1", "Potency": "inconclusive: 0.631 µM [quencher, side channel, single point]"}, {"compound": "COc1ccccc1Nc1nc(-c2c(C)nc3ncccn23)cs1", "activity change, negative = inhibition": "inactive: 21%"}, {"compound": "Nc1nc(=S)n(-c2ccccc2)[nH]1", "activity change, negative = inhibition": "inactive: -8.35%"}, {"compound": "Cc1cc(C=C2C(=O)c3ccccc3C2=O)c(C)n1-c1ccc(Cl)cc1", "Potency": "inconclusive: 39.8 µM [quencher, side channel, single point]"}, {"compound": "Cc1cccc(NC(=S)NCCN2CCOCC2)c1", "Potency": "inconclusive: 6.31 µM [fluorescent, side channel, single point]"}, {"compound": "O=c1/c(=C\\c2ccc(F)cc2)sc2n1CCCN=2", "Potency": "inconclusive: 39.8 µM [quencher, side channel, partial curve]"}, {"compound": "O=C(CCCn1cnc([N+](=O)[O-])n1)Nc1ccc(Cl)c(Cl)c1", "Potency": "inconclusive: 28.2 µM [quencher, side channel, partial curve]"}, {"compound": "CC(=O)Oc1ccc2occ(/C=N/c3cc(=O)[nH]c(=S)[nH]3)c(=O)c2c1", "Potency": "inconclusive: 17.8 µM [quencher, side channel, partial curve]"}, {"compound": "Cc1ccc(/C=N\\NC(=O)c2ccc3c(c2)OCO3)o1", "Potency": "inconclusive: 28.2 µM [quencher, side channel, single point]"}, {"compound": "O=S(=O)(Nn1c(O)c(C=C2N=c3ccccc3=N2)sc1=S)c1ccccc1", "Potency": "inconclusive: 28.2 µM [quencher, side channel, single point]"}, {"compound": "CCN(CC)S(=O)(=O)c1ccc(Cl)c(NC(=O)COC(=O)c2ccc([N+](=O)[O-])o2)c1", "Potency": "inconclusive: 20 µM [quencher, side channel, partial curve]"}, {"compound": "CCN1CCCC1CN(Cc1cc2ccc(C)cc2[nH]c1=O)C(=S)Nc1ccccc1OC", "note": "(stereo not given)", "Potency": "inconclusive: 17.8 µM [fluorescent, side channel, partial curve]"}, {"compound": "O=c1ccc2ccccc2o1", "Potency": "inconclusive: 1 µM [inhibitor, full curve, poor fit]"}, {"compound": "O=C(Nc1cccc([N+](=O)[O-])c1)N1CCN(c2ccccc2)CC1", "Potency": "inconclusive: 12.6 µM [quencher, side channel, partial curve]"}, {"compound": "S=C(NCCc1ccncc1)Nc1cccc2ccccc12", "Potency": "inconclusive: 39.8 µM [quencher, side channel, single point]"}, {"compound": "COC(=O)Nc1ccc(S(=O)(=O)Nc2cccc3ccccc23)cc1", "Potency": "inconclusive: 39.8 µM [quencher, side channel, single point]"}, {"compound": "O=C(Nc1ccc(F)cc1F)c1cc2nc3c(c(C(F)(F)F)n2n1)CCCC3", "activity change, negative = inhibition": "inactive: -6.76%"}, {"compound": "COc1ccc(C2c3[nH]c4ccccc4c3CCN2CCCn2cccn2)c(F)c1", "note": "(stereo not given)", "Potency": "inconclusive: 12.6 µM [quencher, side channel, partial curve]"}, {"compound": "CC(=O)c1ccc2c(c1)C1C=CCC1C(C(=O)O)N2", "note": "(stereo not given)", "Potency": "inconclusive: 31.6 µM [quencher, side channel, partial curve]"}, {"compound": "NC(=O)CSc1nnnn1-c1cccc(Cl)c1", "Potency": "inconclusive: 7.08 µM [fluorescent, side channel, partial curve]"}, {"compound": "CN1CCN(C(=O)c2cc(S(=O)(=O)Nc3ccccc3F)c(Cl)cc2Cl)CC1", "Potency": "inconclusive: 39.8 µM [fluorescent, side channel, single point]"}, {"compound": "N/C(=N\\OC(=O)c1ccccc1Cl)c1cccc([N+](=O)[O-])c1", "Potency": "inconclusive: 17.8 µM [quencher, partial curve]"}, {"compound": "NC(=O)[C@@H]1CCNc2c(I)cc([N+](=O)[O-])cc2C(=O)N[C@@H](CCC(=O)O)C(=O)N[C@@H](CO)C(=O)N1", "Potency": "inconclusive: 15.8 µM [quencher, side channel, partial curve]"}, {"compound": "CN(C)c1ccnc2sc(C(=O)NCc3ccccc3)c(N)c12", "Potency": "inconclusive: 25.1 µM [quencher, side channel, partial curve]"}]}]}
